# In PubChem BioAssay (Tox21):
# “And” between values parts separate entries of the source, which are not always exact repeats. Identical values can stand only once. Inconclusive means that the source gave no clear call. Such entries were picked first, then a sample of the others. Potencies of inconclusive entries are doubtful fits and often do not repeat. Some compounds were tested as several samples or in several runs, with calls that do not always agree. The source made the active and inactive calls. The call rests on the fitted dose curve; in most records, active means well fitted inhibition curve with a large enough effect in the repeat runs; inconclusive means weak or mixed curves; inactive means no such curve, though single readings can be large or run the other way.
# Target: Cytochrome P450 1A2 (Homo sapiens) (UniProt P05177)
# Assay: Cytochrome P450 Family 1 Subfamily A Member 2 (CYP1A2) small molecule antagonists: luciferase reporter qHTS assay (AID 1671199); further: nearly all actives have a fitted effect of over 50% in size
# Details: P450-Glo CYP1A2 enzyme, luciferin luminescence, 1 h; series mostly up to 115 µM; activity change, negative = inhibition: at the top concentration
# Outline: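 P450-Glo CYP1A2, 1536-well qHTS: enzyme/proluciferin substrate + cpd (DMSO), 10 min RT; NADPH regen, 1 h RT; detection reagent, 20 min; luminescence, RLU.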
# On the % scale 0 is the no-effect control and ±100 the full control effect; potency means the concentration at half of the fitted maximal effect; tags describe the fitted curve by direction and shape.
# Sequence of UniProt P05177 (P05177 whole entry, looked up): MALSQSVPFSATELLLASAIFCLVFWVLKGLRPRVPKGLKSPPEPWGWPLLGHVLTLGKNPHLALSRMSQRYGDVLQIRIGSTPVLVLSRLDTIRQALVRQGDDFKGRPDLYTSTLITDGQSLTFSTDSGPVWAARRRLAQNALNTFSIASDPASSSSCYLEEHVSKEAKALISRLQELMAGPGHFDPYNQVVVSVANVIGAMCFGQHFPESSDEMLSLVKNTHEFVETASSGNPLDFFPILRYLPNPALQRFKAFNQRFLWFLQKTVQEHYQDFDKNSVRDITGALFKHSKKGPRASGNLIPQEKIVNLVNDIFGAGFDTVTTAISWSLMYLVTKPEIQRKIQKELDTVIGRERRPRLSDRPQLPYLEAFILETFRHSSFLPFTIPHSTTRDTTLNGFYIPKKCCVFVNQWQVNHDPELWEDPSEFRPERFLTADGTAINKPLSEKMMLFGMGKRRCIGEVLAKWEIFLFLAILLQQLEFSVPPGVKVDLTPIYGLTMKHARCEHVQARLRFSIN
SMILES,Potency,"activity change, negative = inhibition"
CCOP(=S)(OCC)Oc1ncn(-c2ccccc2)n1,active: 1.78 µM,
N#CC(O)c1ccccc1 (stereo not drawn),"inconclusive: 63.2 µM [inhibitor, partial curve]",
CC(C)C1(C)N=C(c2nc3ccccc3cc2C(=O)O)NC1=O (stereo not drawn),"inconclusive: 35.9 µM [inhibitor, partial curve]",
CCN(C)N=O,"inconclusive: 62.2 µM [inhibitor, partial curve]",
CCn1cc[n+](C)c1,"inconclusive: 50.7 µM [inhibitor, partial curve] and inconclusive: 79.5 µM [inhibitor, partial curve]",
Oc1c(Cl)cccc1Cl,"inconclusive: 69.5 µM [inhibitor, partial curve]",
N#CCCCl,inactive,
NC(=O)CI,active: 35.9 µM,
Cc1ccccc1CCl,,inactive: -10.6%
O=[N+]([O-])c1ccccc1CCl,"inconclusive: 64 µM [inhibitor, partial curve]",
[O-][Cl+2]([O-])O,inactive,
CCC(Cl)[N+](=O)[O-] (stereo not drawn),"inconclusive: 65.6 µM [inhibitor, partial curve]",
CC(C)CC(C)N (stereo not drawn),,inactive: -15.8%
C[N+](C)(C)C,"inconclusive: 41.1 µM [inhibitor, partial curve]",
ClCc1ccccc1CCl,"inconclusive: 35.6 µM [inhibitor, partial curve]",
COC(=O)c1c(C(F)F)nc(C(F)(F)F)c(C2=NCCS2)c1CC(C)C,active: 0.356 µM,
NC(=O)C(Cl)(Cl)Cl,"inconclusive: 71.3 µM [inhibitor, partial curve]",
CCCC[N+]1(C)CCCCC1,"inactive and inconclusive: 63.4 µM [inhibitor, partial curve]",
Cc1cc(C)cc(OP(=O)(Oc2cc(C)cc(C)c2)Oc2cc(C)cc(C)c2)c1,active: 22.8 µM,

SMILES,Potency,"activity change, negative = inhibition"
C[N+](C)(C)CCCl,,inactive: -2.08%
N#Cc1cc(I)c(O)c(I)c1,"inconclusive: 63.3 µM [inhibitor, partial curve]",
CC(C)(C)C(O)C(Oc1ccc(Cl)cc1)n1cncn1 (stereo not drawn),"inconclusive: 61.5 µM [inhibitor, partial curve]",
CC(C)c1c(CN(C)C(C)Cc2ccccc2)n(C)n(-c2ccccc2)c1=O (stereo not drawn),"inconclusive: 40.7 µM [inhibitor, single point]",
Nc1nc(=S)[nH][nH]1,"inconclusive: 71 µM [inhibitor, partial curve]",
COc1nn(C(=O)NS(=O)(=O)c2ccccc2OC(F)(F)F)c(=O)n1C,,inactive: -28.7%
CCCCC(CC)COC(=O)OOC(C)(C)C (stereo not drawn),"inconclusive: 35.6 µM [inhibitor, partial curve]",
CN1C[C@H](CNC(=O)OCc2ccccc2)C[C@@H]2c3cccc4c3c(cn4C)C[C@H]21,,inactive: -14.8% [at 53 µM]
CCc1ccc(C(=O)NN(C(=O)c2cc(C)cc(C)c2)C(C)(C)C)cc1,,inactive: -16%
Brc1ccccc1,"inconclusive: 62.9 µM [inhibitor, partial curve]",
CC/C(=N\OC/C=C/Cl)C1=C(O)CC(C2CCOCC2)CC1=O (stereo not drawn),"inconclusive: 35.5 µM [inhibitor, partial curve]",
c1ccoc1,,inactive: -1.27%
O=C(CCl)C(Cl)Cl,"inconclusive: 63.9 µM [inhibitor, partial curve]",
CS(=O)(=O)c1cc(C(F)(F)F)ccc1C(=O)c1cnoc1C1CC1,active: 35.6 µM,
CCCN(CCC)N=O,inactive,
CCNc1nc(NC(C)(C)C)nc(SC)n1,active: 7.01 µM and active: 7.96 µM,
CNC(=O)O/N=C(/CSC)C(C)(C)C,"inconclusive: 31.7 µM [inhibitor, partial curve]",
C=C(C)C(=O)OCC1CO1 (stereo not drawn),inactive,
CC(C)N(C(=O)COc1nnc(C(F)(F)F)s1)c1ccc(F)cc1,active: 39.9 µM,
